Experimental data published in the supplement of paper PMC7826260.
This is one part of the list. Viral Rep nickase domains cut single-stranded DNA in vitro for 1 h at 37 °C with 3 µM enzyme; only the middle of the 90-letter strands is printed. Values are log2 of uncut reads against the no-enzyme pool; more negative means more cut, near 0 not cut, and no call is made. Counts are relative to all reads; where an enzyme cuts many sequences, the uncut ones exceed 0.

Experiments:
Assay in all cases: uncleaved DNA left, log2 of reads against the no-enzyme library (log2 ratio); higher = less cleavage (more negative = more Rep cleavage of the k-mer); sequences stand for … in CTCGTCCG…ACCGGAGA
[1] = system: T1, Rep nickase domain of Muscovy duck circovirus
T1 sequence (protein, residues 1-111, tag omitted): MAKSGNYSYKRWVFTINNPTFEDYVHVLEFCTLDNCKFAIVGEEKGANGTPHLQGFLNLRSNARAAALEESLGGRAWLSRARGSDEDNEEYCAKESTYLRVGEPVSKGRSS
Protocol: (§1)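 A pool of 90-nt single-stranded DNAs with seven random bases just before the constant AC of the nick site (name = the seven bases) was cut by 3 µM recombinant His6-SUMO-tagged Rep nickase domain (300 nM DNA, 50 mM HEPES pH 8.0, 50 mM NaCl, 1 mM MnCl2, 1 h, 37 °C, three replicates). Uncut DNA was amplified and sequenced.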

[2] = system: T2, Rep nickase domain of banana bunchy top virus
T2 sequence (protein, residues 1-94, tag omitted): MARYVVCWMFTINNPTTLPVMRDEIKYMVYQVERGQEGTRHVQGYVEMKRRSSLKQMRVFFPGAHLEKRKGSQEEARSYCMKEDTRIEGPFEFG
Protocol: as §1

[3] = system: T3, Rep nickase domain of cabbage leaf curl virus
T3 sequence (protein, residues 1-116, tag omitted): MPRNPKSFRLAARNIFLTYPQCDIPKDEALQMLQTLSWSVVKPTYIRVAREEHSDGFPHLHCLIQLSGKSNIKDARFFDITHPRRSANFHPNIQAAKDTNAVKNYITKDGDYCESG
Protocol: as §1

[4] = system: T4, Rep nickase domain of chickpea chlorotic dwarf virus
T4 sequence (protein, residues 1-124, tag omitted): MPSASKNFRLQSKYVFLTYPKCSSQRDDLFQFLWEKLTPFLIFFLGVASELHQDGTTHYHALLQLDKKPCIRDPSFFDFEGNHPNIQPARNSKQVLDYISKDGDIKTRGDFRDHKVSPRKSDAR
Protocol: as §1

[5] = system: T5, Rep nickase domain of faba bean necrotic yellows virus
T5 sequence (protein, residues 1-98, tag omitted): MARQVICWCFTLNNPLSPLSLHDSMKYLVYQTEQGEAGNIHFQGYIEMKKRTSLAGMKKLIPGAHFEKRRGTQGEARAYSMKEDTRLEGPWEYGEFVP
Protocol: as §1

[6] = system: T6, Rep nickase domain of maize striate mosaic virus
T6 sequence (protein, residues 1-117, tag omitted): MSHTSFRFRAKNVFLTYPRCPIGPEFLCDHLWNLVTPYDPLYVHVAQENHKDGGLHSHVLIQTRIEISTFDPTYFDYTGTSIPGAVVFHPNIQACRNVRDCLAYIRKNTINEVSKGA
Protocol: as §1

[7] = system: T7, Rep nickase domain of porcine circovirus 2
T7 sequence (protein, residues 2-116, tag omitted): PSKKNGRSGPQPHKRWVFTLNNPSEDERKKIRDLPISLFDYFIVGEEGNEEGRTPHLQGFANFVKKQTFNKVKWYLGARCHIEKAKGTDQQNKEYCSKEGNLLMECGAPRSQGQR
Protocol: as §1

[8] = system: T8, Rep nickase domain of tomato golden mosaic virus
T8 sequence (protein, residues 1-124, tag omitted): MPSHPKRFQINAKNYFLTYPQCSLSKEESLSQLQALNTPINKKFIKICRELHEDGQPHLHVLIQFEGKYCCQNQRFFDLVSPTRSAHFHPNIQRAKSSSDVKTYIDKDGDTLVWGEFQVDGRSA
Protocol: as §1

[9] = system: T9, Rep nickase domain of tomato yellow leaf curl virus
T9 sequence (protein, residues 1-136, tag omitted): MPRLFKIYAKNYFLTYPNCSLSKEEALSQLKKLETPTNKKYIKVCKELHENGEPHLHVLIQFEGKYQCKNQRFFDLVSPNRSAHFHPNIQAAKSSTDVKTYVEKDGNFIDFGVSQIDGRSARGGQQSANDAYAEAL
Protocol: as §1

[10] = system: T10, Rep nickase domain of wheat dwarf virus
T10 sequence (protein, residues 1-137, tag omitted): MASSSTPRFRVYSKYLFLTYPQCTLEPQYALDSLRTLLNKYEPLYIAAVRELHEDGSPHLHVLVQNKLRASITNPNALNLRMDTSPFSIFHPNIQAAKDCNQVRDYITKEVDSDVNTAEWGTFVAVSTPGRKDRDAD
Protocol: as §1

Sequence | uncleaved DNA left (log2) [1] | uncleaved DNA left (log2) [2] | uncleaved DNA left (log2) [3] | uncleaved DNA left (log2) [4] | uncleaved DNA left (log2) [5] | uncleaved DNA left (log2) [6] | uncleaved DNA left (log2) [7] | uncleaved DNA left (log2) [8] | uncleaved DNA left (log2) [9] | uncleaved DNA left (log2) [10]
AAACACG | -0.0533 | -0.0347 | -0.938 | -0.189 | -0.0451 | -0.971 | 0.106 | -0.0165 | -0.0308 | -0.123
TTATTGC | 0.0733 | 0.0841 | -0.578 | 0.582 | 0.192 | -0.733 | 0.219 | -0.0222 | 0.191 | 0.0545
CTCTAAT | -2.37 | -0.264 | -0.12 | -1.34 | -0.00225 | -0.57 | -3.73 | -0.0402 | -0.124 | -0.0987
AAAACGA | 0.0843 | -0.0375 | -0.234 | -0.738 | -0.0199 | -1.21 | 0.0692 | -0.0439 | 0.0377 | -0.144
GTCCGGT | -0.00484 | -0.0351 | 0.298 | 0.804 | -0.144 | 1.55 | 0.0184 | 0.0455 | 0.0601 | 0.0124
TGCAATA | 0.0224 | -0.00858 | -0.091 | -0.91 | 0.0953 | -0.489 | -0.175 | 0.0442 | 0.0404 | -0.0377
AAGGAGG | 0.111 | 0.128 | 0.08 | 0.558 | 0.195 | -0.188 | 0.304 | 0.231 | -0.123 | 0.192
GTTAGTC | 0.0273 | 0.0619 | 0.367 | 0.852 | -0.00235 | 1.3 | 0.158 | 0.151 | -0.00354 | 0.153
ACGATAT | -0.0243 | -0.0773 | -0.00652 | -0.487 | -0.0681 | -0.185 | 0.0479 | 0.0956 | 0.0251 | 0.0466
ATGCAAA | -0.0534 | -0.0844 | -0.161 | -0.183 | -0.0451 | -0.901 | 0.0338 | -0.0243 | -0.0761 | -0.0816
TAGGTCA | 0.0856 | 0.0158 | 0.294 | -0.344 | 0.0529 | 1.04 | -0.447 | 0.0855 | 0.0606 | 0.0692
CAGCGCA | 0.00122 | -0.0606 | -0.133 | -0.101 | -0.156 | -0.135 | -0.0735 | -0.0165 | -0.0416 | -0.0287
ATGCGGG | 0.0812 | 0.115 | -0.26 | -0.158 | 0.124 | -0.889 | 0.146 | -0.0102 | -0.0373 | 0.0254
AACAGCG | 0.0702 | 0.0422 | -0.526 | 0.925 | 0.217 | -0.0582 | 0.234 | 0.0249 | 0.114 | -0.0421
CTCTGGT | -0.131 | -0.0554 | 0.045 | 0.0803 | 0.0101 | 0.314 | -1.02 | -0.0683 | -0.0378 | -0.0785
CCGACTC | -0.0121 | -0.135 | -0.0543 | 0.27 | -0.00882 | 0.706 | -0.24 | -0.137 | -0.11 | -0.109
ATTATCG | -0.000625 | -0.084 | -0.908 | -0.143 | -0.117 | -1.22 | 0.0886 | 0.0424 | 0.0465 | -0.109
AGTAGCA | 0.0989 | 0.0291 | -0.148 | -0.39 | 0.109 | -0.782 | -0.51 | 0.0668 | 0.158 | 0.043
GGGTGTA | 0.145 | 0.0983 | 0.809 | 1.75 | 0.00743 | 2.19 | 0.0493 | 0.0803 | 0.123 | 0.154
CTCCCCA | -0.0315 | 0.0873 | 0.063 | -0.727 | 0.0794 | -0.355 | -0.217 | 0.0104 | 0.0551 | 0.217
CTCAGAC | 0.0374 | 0.0342 | 0.0793 | 0.265 | -0.11 | -0.355 | 0.211 | 0.0148 | -0.0705 | -0.0479
TGTGACT | 0.0325 | 0.0503 | 0.183 | 0.728 | 0.0147 | 1.71 | 0.046 | 0.146 | 0.0141 | 0.188
TGTCGGT | 0.0243 | 0.0099 | 0.564 | 1.35 | 0.0245 | 1.44 | 0.0234 | 0.0836 | 0.0426 | 0.0359
AATATCC | -0.0157 | -0.0129 | -0.0296 | -0.0416 | 0.0405 | -0.276 | -0.0239 | -0.108 | 0.0161 | 0.0605
CGCAAAA | 0.212 | 0.225 | 0.0122 | 0.0288 | 0.119 | -0.445 | 0.0436 | 0.0726 | 0.0732 | 0.129
CGCGAAC | 0.097 | 0.0287 | -0.154 | -0.109 | 0.0777 | -0.443 | 0.228 | -0.0268 | 0.0139 | 0.0246
GAGCCCT | 0.0551 | 0.0973 | 0.319 | -0.351 | -0.0236 | 1.05 | -1.02 | 0.0722 | 0.198 | 0.0837
GTTGGTT | -0.0945 | -0.0179 | 0.189 | 0.603 | 0.0183 | 1.44 | 0.0173 | -0.0541 | -0.134 | -0.082
GTGGGCT | 0.00714 | 0.00431 | 0.695 | 1.63 | 0.0277 | 2.18 | 0.122 | -0.0268 | -0.0493 | 0.097
TTTGCGA | 0.0214 | 0.0195 | -0.548 | 0.849 | 0.0874 | -0.0983 | 0.0778 | -0.114 | -0.0179 | -0.0561
